Some of the results follow.
Experiments:
Assay in all cases: glycan array binding signal (z-score within array); higher = stronger binding
Conditions in all cases: glycan notation: IUPAC condensed, linker removed
[1] = target: Gal(b1-3)GlcNAc(b1-3)Gal(b1-4)GlcNAc(b1-2)[Gal(b1-3)GlcNAc(b1-3)Gal(b1-4)GlcNAc(b1-6)]Man(a1-6)[Gal(b1-3)GlcNAc(b1-3)Gal(b1-4)GlcNAc(b1-2)Man(a1-3)]Man(b1-4)GlcNAc(b1-4)[Fuc(a1-6)]GlcNAc
In short: (§1)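 Negative Z-scores can be read as non-binding. The Z-score is calculated within each array and then averaged across arrays of one protein sequence at different concentrations or buffers and across linkers. Arrays, 3228 in all, were curated from the Consortium for Functional Glycomics database and kept only where the protein sequence was available.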

[2] = target: Gal(b1-3)GlcNAc(b1-3)Gal(b1-4)GlcNAc(b1-3)Gal(b1-4)GlcNAc(b1-2)[Gal(b1-3)GlcNAc(b1-3)Gal(b1-4)GlcNAc(b1-3)Gal(b1-4)GlcNAc(b1-6)]Man(a1-6)[Gal(b1-3)GlcNAc(b1-3)Gal(b1-4)GlcNAc(b1-3)Gal(b1-4)GlcNAc(b1-2)Man(a1-3)]Man(b1-4)GlcNAc(b1-4)[Fuc(a1-6)]GlcNAc
In short: as §1

[3] = target: Gal(b1-3)GlcNAc(b1-3)Gal(b1-4)GlcNAc(b1-6)[Gal(b1-3)GlcNAc(b1-3)]Gal(b1-4)Glc
In short: as §1

[4] = target: Gal(b1-3)GlcNAc(b1-3)Gal(b1-4)[Fuc(a1-3)]GlcNAc
In short: as §1

[5] = target: Gal(b1-3)GlcNAc(b1-3)Gal(b1-4)[Fuc(a1-3)]GlcNAc(b1-6)[Gal(b1-3)GlcNAc(b1-3)]Gal(b1-4)Glc
In short: as §1

[6] = target: Gal(b1-3)GlcNAc(b1-3)GalNAc
In short: as §1

[7] = target: Gal(b1-3)GlcNAc(b1-6)Gal(b1-4)GlcNAc
In short: as §1

[8] = target: Gal(b1-3)GlcNAc(b1-6)GalNAc
In short: as §1

[9] = target: Gal(b1-3)GlcNAc(b1-6)[Gal(b1-3)]GalNAc
In short: as §1

Gal(b1-3)GlcNAc6S = target: Gal(b1-3)GlcNAc6S
In short: as §1

[10] = target: Gal(b1-3)[Fuc(a1-4)]GlcNAc
In short: as §1

[11] = target: Gal(b1-3)[Fuc(a1-4)]GlcNAc(b1-2)Man
In short: as §1

[12] = target: Gal(b1-3)[Fuc(a1-4)]GlcNAc(b1-2)Man(a1-3)[Gal(b1-3)[Fuc(a1-4)]GlcNAc(b1-2)Man(a1-6)]Man(b1-4)GlcNAc(b1-4)[Fuc(a1-6)]GlcNAc
In short: as §1

[13] = target: Gal(b1-3)[Fuc(a1-4)]GlcNAc(b1-3)Gal(b1-3)[Fuc(a1-4)]GlcNAc
In short: as §1

[14] = target: Gal(b1-3)[Fuc(a1-4)]GlcNAc(b1-3)Gal(b1-4)[Fuc(a1-3)]GlcNAc
In short: as §1

[15] = target: Gal(b1-3)[Fuc(a1-4)]GlcNAc(b1-6)GalNAc
In short: as §1

[16] = target: Gal(b1-3)[GlcNAc(b1-6)]GalNAc
In short: as §1

[17] = target: Gal(b1-3)[Neu5Ac(a2-6)]GalNAc
In short: as §1

[18] = target: Gal(b1-3)[Neu5Ac(a2-6)]GlcNAc(b1-4)Gal(b1-4)Glc
In short: as §1

[19] = target: Gal(b1-3)[Neu5Ac(b2-6)]GalNAc
In short: as §1

Gal(b1-4)Gal = target: Gal(b1-4)Gal
In short: as §1

[20] = target: Gal(b1-4)GalNAc(a1-3)[Fuc(a1-2)]Gal(b1-4)GlcNAc
In short: as §1

[21] = target: Gal(b1-4)GalNAc(b1-3)[Fuc(a1-2)]Gal(b1-4)GlcNAc
In short: as §1

Gal(b1-4)Glc = target: Gal(b1-4)Glc
In short: as §1

Gal(b1-4)Glc6S = target: Gal(b1-4)Glc6S
In short: as §1

Gal(b1-4)GlcNAc = target: Gal(b1-4)GlcNAc
In short: as §1

[22] = target: Gal(b1-4)GlcNAc(a1-6)Gal(b1-4)GlcNAc
In short: as §1

Gal(b1-4)GlcNAc(b1-2)Man = target: Gal(b1-4)GlcNAc(b1-2)Man
In short: as §1

[23] = target: Gal(b1-4)GlcNAc(b1-2)Man(a1-3)Man(b1-4)GlcNAc(b1-4)GlcNAc
In short: as §1

[24] = target: Gal(b1-4)GlcNAc(b1-2)Man(a1-3)[Gal(b1-4)GlcNAc(b1-2)Man(a1-6)]Man(b1-4)GlcNAc(b1-4)GlcNAc
In short: as §1

[25] = target: Gal(b1-4)GlcNAc(b1-2)Man(a1-3)[Gal(b1-4)GlcNAc(b1-2)Man(a1-6)]Man(b1-4)GlcNAc(b1-4)[Fuc(a1-6)]GlcNAc
In short: as §1

[26] = target: Gal(b1-4)GlcNAc(b1-2)Man(a1-3)[Gal(b1-4)GlcNAc(b1-2)Man(a1-6)][Gal(b1-4)GlcNAc(b1-4)]Man(b1-4)GlcNAc(b1-4)[Fuc(a1-6)]GlcNAc
In short: as §1

[27] = target: Gal(b1-4)GlcNAc(b1-2)Man(a1-3)[Gal(b1-4)GlcNAc(b1-2)Man(a1-6)][GlcNAc(b1-4)]Man(b1-4)GlcNAc(b1-4)[Fuc(a1-6)]GlcNAc
In short: as §1

[28] = target: Gal(b1-4)GlcNAc(b1-2)Man(a1-3)[GlcNAc(b1-2)Man(a1-6)]Man(b1-4)GlcNAc(b1-4)GlcNAc
In short: as §1

[29] = target: Gal(b1-4)GlcNAc(b1-2)Man(a1-3)[GlcNAc(b1-4)][Gal(b1-4)GlcNAc(b1-2)Man(a1-6)]Man(b1-4)GlcNAc(b1-4)GlcNAc
In short: as §1

[30] = target: Gal(b1-4)GlcNAc(b1-2)Man(a1-3)[Man(a1-6)]Man(b1-4)GlcNAc(b1-4)GlcNAc
In short: as §1

[31] = target: Gal(b1-4)GlcNAc(b1-2)Man(a1-6)Man(b1-4)GlcNAc(b1-4)GlcNAc
In short: as §1

[32] = target: Gal(b1-4)GlcNAc(b1-2)Man(a1-6)[GlcNAc(b1-2)Man(a1-3)]Man(b1-4)GlcNAc(b1-4)GlcNAc
In short: as §1

B1: GS13455A-bfa-343-25-343 (Bacteroides fragilis) (protein)
chain: KDEIQIVDQDTSWQMDNKYIEEDIREQLGIDPFTDLVYLGYYGNPYTQLEAINDLVNTTLVGKNELSFKVKVTKPYKEDIKVNLMKEDKLVTDFPEMAEGIPLFPSENCTFEGGVLKAGELETTVKLTLKDVEKLNNLSGYVMAIKLTMEGSHEHLAIARTRSSYFVKLNLSIRLDNIDSSNKKIEGKGFNKEISFKSDIRPDKLGSLNDGNFTANNWYTSNANNYLTIILPEKQSLKGFRLDTNTSPSGSYMLKSCRVMVETPDGNWVNHGVFDRKSMDGIAYISFKKPVECTKVRFENMMAFNGRFSVDVNEVTAFR
glycan array binding signal (z-score) [1]: -0.436 | glycan array binding signal (z-score) [2]: 0.279 | glycan array binding signal (z-score) [3]: -0.531 | glycan array binding signal (z-score) [4]: -0.093 | glycan array binding signal (z-score) [5]: -0.016 | glycan array binding signal (z-score) [6]: -0.585 | glycan array binding signal (z-score) [7]: -0.472 | glycan array binding signal (z-score) [8]: -0.419 | glycan array binding signal (z-score) [9]: -0.057 | glycan array binding signal (z-score) (Gal(b1-3)GlcNAc6S): -1.03 | glycan array binding signal (z-score) [10]: -0.314 | glycan array binding signal (z-score) [11]: -0.66 | glycan array binding signal (z-score) [12]: 1.16 | glycan array binding signal (z-score) [13]: -0.691 | glycan array binding signal (z-score) [14]: 0.241 | glycan array binding signal (z-score) [15]: -0.551 | glycan array binding signal (z-score) [16]: -0.384 | glycan array binding signal (z-score) [17]: -0.443 | glycan array binding signal (z-score) [18]: 0.21 | glycan array binding signal (z-score) [19]: -0.532 | glycan array binding signal (z-score) (Gal(b1-4)Gal): 0.086 | glycan array binding signal (z-score) [20]: -0.716 | glycan array binding signal (z-score) [21]: -0.366 | glycan array binding signal (z-score) (Gal(b1-4)Glc): 0.422 | glycan array binding signal (z-score) (Gal(b1-4)Glc6S): -0.264 | glycan array binding signal (z-score) (Gal(b1-4)GlcNAc): -0.238 | glycan array binding signal (z-score) [22]: -0.1 | glycan array binding signal (z-score) (Gal(b1-4)GlcNAc(b1-2)Man): -0.191 | glycan array binding signal (z-score) [23]: -0.425 | glycan array binding signal (z-score) [24]: 0.049 | glycan array binding signal (z-score) [25]: 0.019 | glycan array binding signal (z-score) [26]: -0.324 | glycan array binding signal (z-score) [27]: -0.674 | glycan array binding signal (z-score) [28]: -0.46 | glycan array binding signal (z-score) [29]: -0.456 | glycan array binding signal (z-score) [30]: -0.471 | glycan array binding signal (z-score) [31]: -0.182 | glycan array binding signal (z-score) [32]: -0.25

From the supplement of paper PMC8728848
